Results as given in the supplement of paper PMC11417369.
± gives the standard deviation of the averaged measurements. This is one part of the list.

The sequences below were run on PfAP2-LT AP2 domain (GST-tagged) (assay: gcPBM binding intensity (ln(normalized median fluorescence intensity)); higher = stronger DNA binding).
In short: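 The binding buffer was 1× PBS containing 1% milk, 0.2 mg/ml BSA, 0.5% salmon testes DNA and 0.03% Triton X-100. In it, GST-tagged P. falciparum DNA-binding domains expressed in E. coli were applied for 1 h to an Agilent 4 × 180k array of primer-extended double-stranded 36-bp intergenic genomic probes plus negative controls. Binding intensity, read with Alexa488 anti-GST antibody and a 488 nm scan, is the highest Masliner-normalised natural-log median intensity across replicate spots of either probe orientation.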

Sequence | gcPBM binding intensity (ln)
ATATATTTATATATATGTACATATTATGTTAAGAAA [XGTACX_site1111] | 8.67 ± 0.49
GCTTGTACATTTTTAAAAAATGACTTCGAAAGGAAT [CACACA_negctrl_site453] | 8.53 ± 0.42
TTCCTTATTATTATTTTACACACGTCCTAATAAGAG [CACACA_site8364] | 9.09 ± 0.49
TTTATGCATAGAGAAACATGCAAGAAAGATGCAAAA [TGCATGCA_site726] | 8.84 ± 0.44
AACTCTTAGAATGACGGTACAGTATAATAGGTGAAC [XGTACX_site7163] | 8.92 ± 0.49
ATATAATGAATTATTAGAAAATAAAATGAATAAAGT [CACACA_negctrl_site690] | 8.93 ± 0.49
ATATATATATATAGTGCACACTTAAGAATATAAAGA [CACACA_site4771] | 9.1 ± 0.43
TGTTATATAATTTAGCGTACAGGTTATAGGACGGAT [XGTACX_site8823] | 8.88 ± 0.28
AACTATTACTTTCTTTCACACATTTTTTTTTTTTTT [CACACA_site5355] | 8.94 ± 0.59
ATCATATAAACATATTGTACTTAAATACATAATATT [XGTACX_site3800] | 8.59 ± 0.34
CAAACCCACGGACACACACACACAAAAATGATTAAA [CACACA_site5365] | 9.71 ± 0.38
GGATACGCTTTTGTACCACTCCCCCTTTTGGGAATA [CACACA_negctrl_site1363] | 8.79 ± 0.24
TTTATTTATTTATGTGGTACTTCAAAAATATATACT [XGTACX_site355] | 8.61 ± 0.47
AAATTGGGTACAAATACACACACATATATATATTAA [CACACA_site8745] | 9.43 ± 0.35
ATAGATCCTAATGTTGTGCACATGTAAATTAATATA | 8.86 ± 0.47
TTTATACAATAAAATGCATGCAAGTATCTATTTTAT [TGCATGCA_site210] | 8.89 ± 0.39
TCAGATATATAGAATACACACATGGATATAAGAAAT [CACACA_site7831] | 9.19 ± 0.38
TTTTTGTAATATTATGATGTCATATATATATATATA [XGTACX_negctrl_site618] | 9.035 ± 0.078
ATATTTTGTAACTATACACACATATATATATTATAA [CACACA_site3062] | 8.91 ± 0.31
CAAAAGAATATATGTAGTACATGTTGTAGATAATAT [XGTACX_site1044] | 9.13 ± 0.42
CGCGAAGTAGCATTCACACACAGCAAAATATAAATA [CACACA_site7608] | 9.38 ± 0.43
AAAAAACAAAAAAAAAAAAAAATAATACAATATAAT [CACACA_negctrl_site1630] | 8.63 ± 0.49
ACCATATAAATAAACACACACACACCGATATATATA [CACACA_site5310] | 10.09 ± 0.085

Sequence | gcPBM binding intensity (ln)
TATAATGAACATATGTGTACATATATTTTTTAAATT [XGTACX_site8736] | 8.76 ± 0.37
GCACAACATATATTATCACACACATATATATATATA [CACACA_site8619] | 10.03 ± 0.092
AAAAAAAAAAAATACACACACACATATTTATTTATA [CACACA_site6483] | 9.61 ± 0.26
AAAAAAAAAAATAAATGTACAAAATAATGGGGAACA [XGTACX_site8723] | 9.15 ± 0.57
GTGAATGATTTAAGTACACACCGGTATTTATTCAAA [CACACA_site4950] | 8.88 ± 0.39
ATATATATATATATATGTACATATTTTATTTAATTT [XGTACX_site1807] | 9.49 ± 0.32
TGTATTAAAAATTTGGTGCAACTTTTACATAATAAT | 8.6 ± 0.42
TTTTTTTTTTTTTTTTGTACGAATAAACAAGTTATT [XGTACX_site5473] | 8.32 ± 0.44
AATATTTATATTAACTGTACAGAAAATATCTTTGCT [XGTACX_site8130] | 8.68 ± 0.48
CATAAGATTTTTACATGTACATATTTATAATATATT [XGTACX_site6578] | 8.96 ± 0.33
GATATATAAATTGACACACACATATATACCTATATA [CACACA_site6689] | 9.34 ± 0.34
TTCTTTTTTTTTTTTTCATGTATATTAAACTTTTCA [TGCATGCA_negctrl_site592] | 8.59 ± 0.54
AATATAAAAATGTTTACACACACACCGAAATATATT [CACACA_site8800] | 9.51 ± 0.28
TATGCCATGGCATAATGTACATAAGTGACCTCATAA [XGTACX_site1294] | 8.9 ± 0.46
GATTCGATCTATATATGTACACATAAATATTTTTTG [XGTACX_site7015] | 8.84 ± 0.41
TATATATATATATATATATATATATATGTGTATGTA [TGCATGCA_negctrl_site255] | 10.2 ± 0.26
TATATATTTATTTATTGTACACTCTTTAAGAATACA [XGTACX_site2569] | 8.59 ± 0.42
AATAAAATTGACCATTCACACAAGAAAAATTAATCA [CACACA_site5636] | 8.71 ± 0.42
ATACACAAGAATATGTTGCACTTTTATATTCGTATG | 9.02 ± 0.45
AAAAGAATTAATTTATGTACTAATTTCAAGAAATAA [XGTACX_site3241] | 8.28 ± 0.54
CTTTTTCCTTTATAAAGTACTTAAAATATTTAGATA [XGTACX_site4259] | 8.31 ± 0.46
ATATATTATCAACTTACACACAGAAAACTATAATAA [CACACA_site6275] | 9.03 ± 0.33
TCCTTACACACACTTTTTTTTTTTTTTTTTTCTACA [GTGCAC_negctrl_site263] | 9.16 ± 0.53

Sequence | gcPBM binding intensity (ln)
CTCGATCAAGTGTATGCATGTACCAGTGAACAAAAA [TGCATGCA_site635] | 8.9 ± 0.54
ATATATTTAAAAAAATGTACAAATCATAAATGCAAG [XGTACX_site4230] | 8.77 ± 0.39
TATAATGTTGATGATAGTACGTATGAGTTCAAAAAA [XGTACX_site3651] | 8.82 ± 0.42
AAAAAATTATACCAGTGTACTTTTTTGGTTTTTCTT [XGTACX_site2601] | 8.79 ± 0.52
AGAAATTAAATGTAAGCACACATAAATTATACACAT [CACACA_site9098] | 9.12 ± 0.42
TTCTTTATTATATGCACACGTACATATAATATATAT [CACACA_site2018] | 9.09 ± 0.44
ATTTATATTAATGGATAAATAAATGTGTACTTGATA [CACACA_negctrl_site24] | 8.62 ± 0.36
ATCAACAAAACATACACACACATATAGATTTATATA [CACACA_site7415] | 9.55 ± 0.32
AAAAAAAAAAAACACACACACATATATATATATATA [CACACA_site732] | 10.4 ± 0.19
TTATGTAAAATCGATACATGCATTAATCATTTTATA [TGCATGCA_site493] | 8.51 ± 0.45
TATGATATGTTATACACACACGTATTTATGAATTGA [CACACA_site7591] | 9.09 ± 0.32
TCATATTTCCATAGGAGTACATAAAAAAAATAATAT [XGTACX_site7601] | 8.63 ± 0.51
AAAATGTAGAAATGGGTGCACACACATATATAATAT | 9.5 ± 0.45
TATATATATAAAAGTTGTACAGTGTTTTATATAGTT [XGTACX_site7085] | 8.74 ± 0.36
AATTAGCTATTTAAAAATATATAAAATTTATATATA [CACACA_negctrl_site390] | 8.25 ± 0.41
GAAATAGAGAGACACACACACATATATTTATGTATT [CACACA_site7794] | 9.78 ± 0.4
ATCATATTGAATATTTAACACACATTTCGCTTAATT [CACACA_site8652] | 9.08 ± 0.49
TTTTTCTTTTGATGTTGTACATATATATTATATATA [XGTACX_site2754] | 8.77 ± 0.38
TTTTCAATTAATAATACACACATGTATATATCATTA [CACACA_site7539] | 8.81 ± 0.43
TGATGTTGTAACAAAAGTACACACACATTTCTATAA [XGTACX_site5837] | 9.08 ± 0.38
TAATGCATTATTAGAATACACACCATACGCATATTT [CACACA_site289] | 9.08 ± 0.3
AACTGTACAATTTTTGTGCACAATAATTATTAATAT [GTGCAC_site9462] | 8.84 ± 0.33
ATATTTTTATTTAAACGTACATACACGTTGAAAAGA [XGTACX_site4567] | 8.43 ± 0.4

Sequence | gcPBM binding intensity (ln)
TGCTATATAATATGAGCACACATAAGATTTGGTGTT [CACACA_site8148] | 8.98 ± 0.47
AATCTGATTTGTATATGTACACAAATATTTTTATTT [XGTACX_site5295] | 8.99 ± 0.53
AACTATAAAAAAAATACACACATTACCAAAAATATA [CACACA_site1529] | 9.13 ± 0.39
TTTAATAATTATTAAAGTACAAAATAAATATTGAAT [XGTACX_site7538] | 8.62 ± 0.38
TATAAAAAAATATATATATATATATATATATAAATA [TGCATGCA_negctrl_site22] | 9.09 ± 0.37
GATAAAACGTTATGCACACGTACGTGGGTATTTATA [CACACA_site4954] | 9.25 ± 0.44
AAGAAAAAAAAAAAAAATATATATATAAGAACATAT [TGCATGCA_negctrl_site131] | 8.71 ± 0.47
TAATATTATTTAGAGTGTACTCATAAATCAACAAAA [XGTACX_site5269] | 8.38 ± 0.51
ATATAGAACACCTGTGCATGCAAGTGCTAAAAAATT [TGCATGCA_site213] | 9.25 ± 0.52
CTATTTTTATATTATTGTACGTTGTTATTATATATA [XGTACX_site1469] | 8.87 ± 0.49
CTAAGCTAAGTAAGCTGTACTTCACCTTTATACAGT [XGTACX_site3087] | 8.89 ± 0.52
ATATATATGGAAACAGTGCAATACATATATATATAT | 9.61 ± 0.6
TTTATATTTATATATACACACATATACATCCTATTT [CACACA_site3079] | 9.13 ± 0.47
TTTTTTTTTTTTAATACACACATATTTATATTTATT [CACACA_site7802] | 8.8 ± 0.53
TTTTTCTTAAAAAATTGTACACATATATATATATAT [XGTACX_site542] | 9.05 ± 0.15
ATTAAGTTAAACATTACACACTATGTATTATTTATG [CACACA_site973] | 9.02 ± 0.45
ATATATATATATATATGTACTAACCTTTTAAAATAT [XGTACX_site6488] | 9.355 ± 0.078
AATTGGGTAGGACATGCATGAGAAATTAATATTGCA [TGCATGCA_site356] | 9.12 ± 0.58
AATCAAAGCCCACATACACACACATATATATATATA [CACACA_site7987] | 10 ± 0.2
TATTACATTGTTGAATGTACTCATTTAAAATTTATA [XGTACX_site7987] | 8.44 ± 0.41
